Assay results published in PubChem BioAssay AID686978 (National Center for Advancing Translational Sciences (NCATS), 2013).
Several values for one entry are separate records, joined by “and”; a condition that tells them apart may be missing. Identical values can stand only once. The campaign covered roughly 420,000 compounds. About 64,000 (15%) were called active. Inconclusive means that the source gave no clear call. Such entries were picked first, then a sample of the others. The call rests on the fitted dose curve; in most records, active means well fitted inhibition curve with a large enough effect; inconclusive means small, poorly fitted or top-dose-only effect; inactive means flat fitted curve, though single readings scatter. No potency is given beside an inconclusive call; the fits are too rough.

Assay: qHTS for Inhibitors of human tyrosyl-DNA phosphodiesterase 1 (TDP1): qHTS in cells in absence of CPT; further: nearly all actives have a fitted effect of over 55% in size
Settings: DT40 Tdp1-/- hTDP1 cells, no CPT, ATP luminescence, 48 h; activity change, negative = growth inhibition: at 46.2 µM (top of the series) unless noted
Method in brief: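 Seeded 400 DT40-hTDP1 cells/well (vehicle DMSO, no 20 nM CPT); pinned compounds; ≥48 hr at 37 °C; CellTiter-Glo luminescence as viability measure.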
On the % scale 0 is the no-effect control and ±100 the full control effect; potency means the concentration at half of the fitted maximal effect; tags describe the fitted curve by direction and shape.

| Structure (SMILES) | activity change, negative = growth inhibition | Potency |
| --- | --- | --- |
| COc1ccc(CCNC(=O)CCn2c(=O)c3ccccc3n(CC(=O)Nc3ccccc3F)c2=O)cc1OC | inactive: -1.94% |  |
| CC(O)CNC(=O)Cc1cc(=O)[nH]c(=O)[nH]1 (stereo not drawn) | inactive: 4.14% |  |
| C=CCn1c(C)cc(C(=O)CSc2nnc(C3CC3)n2C2CC2)c1C |  | inconclusive [inhibitor, single point] |
| CC(C)Oc1cccc(C(=O)Nc2ccc(N3CCN(C)CC3)cc2)c1 |  | inconclusive [inhibitor, single point] |
| C=CCSc1nc2sc3c(c2c(=O)n1-c1ccc(C)cc1)CCN(C)C3 |  | inconclusive [inhibitor, single point] |
| CC(C)(C)c1ccc(C2Sc3ccccc3NC3=C2C(=O)c2ccccc23)cc1 (stereo not drawn) |  | inconclusive [inhibitor, single point] |
| Cc1ccc(S(=O)(=O)N2CCN(C(=O)COC(=O)CNC(=O)c3ccccc3)CC2)c(C)c1 | inactive: -25.8% |  |
| Cc1cccc(S(=O)(=O)NC2CCCCCCC2)c1 |  | inconclusive [inhibitor, single point] |
| CCc1ccc(N2CC(C(=O)Nc3ccc4c(c3)OCCO4)CC2=O)cc1 (stereo not drawn) | inactive: -13% |  |
| c1cncc(CNc2ncnc3sc4c(c23)CCCC4)c1 |  | inconclusive [inhibitor, single point] |
| CCn1c(=O)cc(OCC(=O)O)c2ccccc21 | inactive: 3.21% |  |
| CCOc1ccc(NC(=O)CC2C(=O)N(c3ccccc3)C(=O)N2CCc2ccc(OC)cc2)cc1 (stereo not drawn) |  | inconclusive [inhibitor, partial curve] |
| Cc1ccc(C)c(OCc2nc3ccc(S(=O)(=O)Nc4c(C)n(C)n(-c5ccccc5)c4=O)cc3[nH]2)c1 |  | inconclusive [inhibitor, single point] |
| CCOC(=O)c1sc2nc(N3CCOCC3)c3c(c2c1N)CCN(Cc1ccccc1)C3 |  | inconclusive [inhibitor, single point] |
| CC1=C/C(=N\OS(=O)(=O)c2ccccc2)C(C)=CC1=O |  | active: 0.82 µM |
| CC(=O)c1ccc(NS(=O)(=O)c2cccc3cccnc23)cc1 |  | inconclusive [inhibitor, partial curve, poor fit] |
| CC(C)C[C@@H](CN1CCCC1CN1C(=S)NC[C@@H]1Cc1ccc(O)cc1)N1C[C@H](Cc2ccc(O)cc2)N(CC2CCCCC2)C1=S (stereo partly drawn) |  | active: 14.6 µM |
| CCCCN(CC)CCNC(=O)Cn1cnc2sc(C)c(S(=O)(=O)N3CCC(C)CC3)c2c1=O |  | inactive |
| CCCCCC(=O)N1CC2(CC(c3cccc(NC(=O)CC(c4ccccc4)c4ccccc4)c3)=NO2)C[C@@H]1C(N)=O (stereo partly drawn) |  | inconclusive [inhibitor, single point] |
| Cc1cc(S(=O)(=O)Nc2cccc(Cl)c2)c(C)s1 | inactive: -23.1% |  |
| CC1(C)C=C2C(=NN(c3ccccc3)C(N)=C2C#N)CO1 |  | inconclusive [inhibitor, partial curve, poor fit] |
| O=C(NCCCn1ccnc1)c1ccncc1 | inactive: -6.87% |  |
| N=c1ccn(Cc2ccc(F)cc2)cc1 |  | active: 10.3 µM |

| Structure (SMILES) | activity change, negative = growth inhibition | Potency |
| --- | --- | --- |
| O=C1CN(C(=O)Cc2ccc(F)cc2)C(c2ccccc2)c2cc(Br)ccc2N1 (stereo not drawn) |  | inconclusive [inhibitor, single point] |
| O=C(NN=Cc1ccc(O)cc1O)c1ccccc1NS(=O)(=O)c1cccs1 |  | active: 20.6 µM |
| Cc1c(/C=N/n2cnnc2)c2ccccc2n1CCOc1ccc(Cl)cc1 |  | inconclusive [inhibitor, single point] |
| CN1CCN(C(=S)Nc2ccc(Cl)c(Cl)c2)CC1 |  | inconclusive [inhibitor, single point] |
| Cc1ccsc1CN(C)C(=O)CN1C(=O)NC(c2ccccc2)(c2ccccc2)C1=O | inactive: -15.5% |  |
| COc1ccc(S(=O)(=O)N2CCCCCC2)cc1C(=O)N1CCN(c2ccc(F)cc2)CC1 |  | active: 20.6 µM |
| Cc1ccc2cccc(SCC(=O)Nc3ccc(F)cc3)c2n1 |  | inconclusive [inhibitor, single point] |
| O=C(NCc1ccco1)c1cc2n(n1)C(C(F)(F)F)CC(c1ccc(Cl)c(Cl)c1)N2 (stereo not drawn) |  | inconclusive [inhibitor, single point] |
| S=C(NCCc1ccccc1)N1CCn2cccc2C1c1ccncc1 (stereo not drawn) |  | inconclusive [inhibitor, single point] |
| C=CCN1C(=O)c2ccccc2NC1c1ccc(Br)s1 (stereo not drawn) |  | inconclusive [inhibitor, single point] |
| O=C(Nc1ccc(C(=O)c2ccccc2)cc1)c1ccccc1 | inconclusive: -34.8% [inhibitor] |  |
| N#CC(Cc1cccc(CC(C#N)(c2ccccc2)c2ccccc2)c1)(c1ccccc1)c1ccccc1 |  | active: 4.11 µM |
| Cc1ccc(NC(=O)Cn2nc(C)c3nn(-c4ccc(Cl)cc4)c(C)c3c2=O)cc1C |  | active: 14.6 µM |
| Cc1ccc(-c2cc(-c3ccc(C)cc3O)[nH]n2)cc1 |  | inconclusive [inhibitor, single point] |
| O=C(NCCCO)/C(=C\c1ccco1)NC(=O)c1ccc(Br)o1 | inactive: -15.7% |  |
| O=C(O)C(=Cc1cccc([N+](=O)[O-])c1)c1ccc(Cl)cc1 |  | inconclusive [inhibitor, single point] |
| CN1CCCN(c2ccc([N+](=O)[O-])cc2)CC1 | inactive: -4.64% |  |
| CC(NC(=O)C1CCCN1C(=O)OC(C)(C)C)C(=O)OCc1ccccc1 (stereo not drawn) |  | inconclusive [inhibitor, single point] |
| O=C(Nc1cc(Sc2ccccn2)cc([N+](=O)[O-])c1)c1ccc([N+](=O)[O-])cc1 |  | active: 2.06 µM |
| COc1cc(-c2nc(CN3CCN(C(=O)c4ccco4)CC3)c(C)o2)ccc1F | inactive: -11.6% |  |
| CCN(CC(=O)Nc1ccc2c(c1)OCCO2)Cc1cc(=O)oc2cc(C)c(C)cc12 |  | inconclusive [inhibitor, partial curve] |
| CCOc1ccccc1C(=O)OCC(=O)Nc1cccc(S(=O)(=O)NC2=NCCCCC2)c1 |  | inconclusive [inhibitor, single point] |
| COc1ccc(N2C(=O)CC(Sc3ncccc3C(=O)O)C2=O)cc1 (stereo not drawn) | inactive: -3.13% |  |

| Structure (SMILES) | activity change, negative = growth inhibition | Potency |
| --- | --- | --- |
| CN1CCN(c2ncc3nc(-c4cc(F)cc(F)c4)c(=O)n(CCc4ccccc4)c3n2)CC1 | inactive: -20.8% |  |
| CCCn1c(=O)c(C(=O)Nc2c(C)n(C)n(-c3ccccc3)c2=O)c(O)c2ccccc21 |  | inconclusive [inhibitor, single point] |
| COc1ccc2oc(=O)c(/C(C)=N/Nc3nc(-c4cc(C)ccc4C)cs3)cc2c1 |  | inconclusive [inhibitor, single point] |
| Cc1cccc(C(=O)Nc2cccc(-c3cnc4ccccc4n3)c2)c1 |  | inconclusive [inhibitor, full curve, poor fit] |
| CC(=O)c1c[nH]c(C(=O)NCc2ccccc2Cl)c1 | inactive: -0.536% |  |
| COc1c2c(c(CCC(=O)O)c3c1C=CC(C)(C)O3)OC(C)(C)C=C2 | inactive: 31.2% |  |
| Cc1ccc(/C=C/c2onc(C)c2S(=O)(=O)N2CCC(C(=O)NC(C)(C)C)CC2)cc1 |  | inconclusive [inhibitor, single point] |
| Cc1ccc(S(=O)(=O)N2CCC[C@H]2C(=O)OCc2nc3ccccc3s2)cc1 |  | inconclusive [inhibitor, single point] |
| COc1cccc(CN(C)C(=S)Nc2cccc(C)c2)c1 |  | inconclusive [inhibitor, single point] |
| Cc1ccc(NC(=O)CN2CCC3(O)CCCCC3C2c2ccc3c(c2)OCO3)c(C)c1 (stereo not drawn) |  | inconclusive [inhibitor, single point] |
| COC(=O)Nc1ccc(S(=O)(=O)N2CCCc3cccc(O)c32)cc1 |  | active: 10.3 µM |
| Cc1cccc(N2CCN(C(=O)C3CCC(CNS(=O)(=O)c4ccc(Br)s4)CC3)CC2)c1C (stereo not drawn) |  | inconclusive [inhibitor, full curve] |
| COc1ccc(CCNS(=O)(=O)c2ccc([N+](=O)[O-])cc2)cc1OC | inactive: -27.8% |  |
| COc1ccc(C(=O)OCn2nnc3ccccc3c2=O)cc1 |  | inconclusive [inhibitor, single point] |
| CC1CCC2C(C1)c1sc(=O)[nH]c1SC2(C)C (stereo not drawn) |  | inconclusive [inhibitor, single point] |
| O=C(Nc1ccc(C(F)(F)F)cc1[N+](=O)[O-])O[C@H]1[C@H](Cc2ccccc2)NS(=O)(=O)[C@H]2C[C@@H]3C=C[C@]12O3 |  | active: 11.2 µM and active: 16.4 µM |
| Cn1c(SSc2ccc(-c3cccnc3)n2C)ccc1-c1cccnc1 |  | inconclusive [inhibitor, single point] |
| C=CCN(C(=O)CN1CCCCC1)c1nc(-c2ccccc2)cs1 |  | inconclusive [inhibitor, partial curve, poor fit] |
| COC(=O)[C@@]12C[C@@H](CC(=O)N3CCOCC3)C(=O)N(Cc3cccc4ccccc34)C1=CCC(C)(C)C2 |  | inconclusive [inhibitor, single point] |
| O=C(NCCC1=CCCCC1)c1cc(S(=O)(=O)N2CCOCC2)c(Cl)cc1Cl |  | inconclusive [inhibitor, single point] |
| CCOC(=O)c1[nH]c(C)c(CCC(=O)Nc2c(C)cc(C)cc2C)c1C |  | active: 20.6 µM |
| Cc1ccccc1CNC(=O)c1ccc(Cl)c([N+](=O)[O-])c1 |  | inconclusive [inhibitor, single point] |
